Patent publication US7595299B2, “Peptides as NS3-serine protease inhibitors of hepatitis C virus” (priority 2000, dated 2009)
Read-outs that look alike come from different tables or passages of the source. Starred links: 1 amine or outer side, 2 acyl side, 3 side chain; linkers in the order of their positions; H or OH if unused. Non-standard residues stand in square brackets, D forms with d. Residues, ends and D or L forms follow the SMILES beside them. ξ: configuration not given here. *: point of attachment. Benzoyl(2-COOH-4,5-Cl2) = O=C(O)c1cc(Cl)c(Cl)cc1C(=O)*; X14 = O=C([C@@H](N[*:1])C1CC[S+]([O-])CC1)[*:2]; Benzoyl(4-SO2NH2) = NS(=O)(=O)c1ccc(C(=O)*)cc1; Benzoyl(2-COOH) = O=C(O)c1ccccc1C(=O)*; Isobutyloxycarbonyl = CC(C)COC(=O)*; Gly(cPent) = N[C@H](C(=O)O)C1CCCC1; X4 = CCCC(N[*:1])C(=O)C(=O)[*:2]; Ala(cPr) = N[CH](CC1CC1)C(=O)O; Chg = N[CH](C(=O)O)C1CCCCC1; Phg = N[CH](C(=O)O)c1ccccc1; Salicyloyl = O=C(c1ccccc1O)*; 2Abz = Nc1ccccc1C(=O)O; ξL = CC(C)CC(N)C(=O)O; OtBu = CC(C)(C)O*; Ms = CS(=O)(=O)*

Biological target: Recombinant heterodimeric HCV NS3/NS4A protease (strain 1a) (Hepatitis C virus genotype 1a, UniProt P27958)
Test: biochemical
Method: Spectrophotometric Assay: Spectrophotometric assay for the HCV serine protease was performed on the inventive compounds by following the procedure described by R. Zhang et al, Analytical Biochemistry, 270 (1999) 268-275, the disclosure of which is incorporated herein by reference. The assay based on the proteolysis of chromogenic ester substrates is suitable for the continuous monitoring of HCV NS3 protease activity. The substrates were derived from the P side of the NS5A-NS5B junction sequence (Ac-DTEDVVX(Nva), where X=A or P) whose C-terminal carboxyl groups were esterified with one of four different chromophoric alcohols (3- or 4-nitrophenol, 7-hydroxy-4-methyl-coumarin, or 4-phenylazophenol). […] Materials and Methods:
Materials: Chemical reagents for assay related buffers were obtained from Sigma Chemical Company (St. Louis, Mo.). Reagents for peptide synthesis were from Aldrich Chemicals, Novabiochem (San Diego, Calif.), Applied Biosystems (Foster City, Calif.) and Perseptive Biosystems (Framingham, Mass.). Peptides were synthesized manually or on an automated ABI model 431A synthesizer (from Applied Biosystems). UV/VIS Spectrometer model LAMBDA 12 was from Perkin Elmer (Norwalk, Conn.) and 96-well UV plates were obtained from Corning (Corning, N.Y.). The prewarming block was from USA Scientific (Ocala, Fla.) and the 96-well plate vortexer was from Labline Instruments (Melrose Park, Ill.). A Spectramax Plus microtiter plate reader with monochrometer was obtained from Molecular Devices (Sunnyvale, Calif.).
Protein concentrations were determined by the Biorad dye method using recombinant HCV protease standards previously quantified by amino acid analysis. Prior to assay initiation, the enzyme storage buffer (50 mM sodium phosphate pH 8.0, 300 mM NaCl, 10% glycerol, 0.05% lauryl maltoside and 10 mM DTT) was exchanged for the assay buffer (25 mM MOPS pH 6.5, 300 mM NaCl, 10% glycerol, 0.05% lauryl maltoside, 5 μM EDTA and 5 μM DTT) utilizing a Biorad Bio-Spin P-6 prepacked column.
Substrate Synthesis and Purification: The synthesis of the substrates was done as reported by R. Zhang et al, (ibid.) and was initiated by anchoring Fmoc-Nva-OH to 2-chlorotrityl chloride resin using a standard protocol (K. Barlos et al, Int. J. Pept. Protein Res., 37 (1991), 513-520). The peptides were subsequently assembled, using Fmoc chemistry, either manually or on an automatic ABI model 431 peptide synthesizer. […] The combined filtrate and DCM wash was evaporated azeotropically (or repeatedly extracted by aqueous Na2CO3 solution) to remove the acid used in cleavage. The DCM phase was dried over Na2SO4 and evaporated.
The ester substrates were assembled using standard acid-alcohol coupling procedures (K. Holmber et al, Acta Chem. Scand., B33 (1979) 410-412). Peptide fragments were dissolved in anhydrous pyridine (30-60 mg/ml) to which 10 molar equivalents of chromophore and a catalytic amount (0.1 eq.) of para-toluenesulfonic acid (pTSA) were added. Dicyclohexylcarbodiimide (DCC, 3 eq.) was added to initiate the coupling reactions. […] Pyridine solvent was evaporated under vacuum and further removed by azeotropic evaporation with toluene. The peptide ester was deprotected with 95% TFA in DCM for two hours and extracted three times with anhydrous ethyl ether to remove excess chromophore. The deprotected substrate was purified by reversed phase HPLC on a C3 or C8 column with a 30% to 60% acetonitrile gradient (using six column volumes).

[1] = HCV protease continuous assay, Table 1, read-out: Ki* Range

Compound	Ki [nM]	Ki [1] [nM]
CCCC(NC(=O)[C@H](CC(C)C)NC(=O)[C@@H](NC(=O)OCC(C)C)C1CCN(C(=O)c2ccccc2)CC1)C(=O)C(=O)NCC(=O)N[C@H](C(=O)O)c1ccccc1 (some centres unmarked) [Example 51]	101 to 1000	–
CCCC(NC(=O)[C@H](CC(C)C)NC(=O)[C@@H](NC(=O)OCC(C)C)C1CCN(C(=O)c2ccc(C(=O)O)cc2)CC1)C(=O)C(=O)NCC(=O)N[C@H](C(=O)O)c1ccccc1 (some centres unmarked) [Example 52]	–	101 to 1000
CCCC(NC(=O)[C@H](CC(C)C)NC(=O)[C@@H](NC(=O)OCC(C)C)C1CCN(C(=O)c2ccc(S(N)(=O)=O)cc2)CC1)C(=O)C(=O)NCC(=O)N[C@H](C(=O)O)c1ccccc1 (some centres unmarked) [Example 53]	–	101 to 1000
CCCC(NC(=O)[C@H](CC(C)C)NC(=O)[C@@H](NC(=O)OCC(C)C)C1CCN(C(C)=O)CC1)C(=O)C(=O)NCC(=O)N[C@H](C(=O)O)c1ccccc1 (some centres unmarked) [Example 54]	–	101 to 1000
CCCC(NC(=O)[C@H](CC(C)C)NC(=O)[C@@H](NC(=O)OCC(C)C)C1CCN(C(=O)CC(C)(C)C)CC1)C(=O)C(=O)NCC(=O)N[C@H](C(=O)O)c1ccccc1 (some centres unmarked) [Example 55]	–	> 1000
CCCC(NC(=O)[C@H](CC(C)C)NC(=O)[C@@H](NC(=O)OCC(C)C)C1CCN(C(=O)CC2CCCCC2)CC1)C(=O)C(=O)NCC(=O)N[C@H](C(=O)O)c1ccccc1 (some centres unmarked) [Example 56]	–	101 to 1000
CCCC(NC(=O)[C@H](CC(C)C)NC(=O)[C@@H](NC(=O)OCC(C)C)C1CCN(C(=O)C2CCCC2)CC1)C(=O)C(=O)NCC(=O)N[C@H](C(=O)O)c1ccccc1 (some centres unmarked) [Example 57]	–	101 to 1000
CCCC(NC(=O)[C@H](CC(C)C)NC(=O)[C@@H](NC(=O)OCC(C)C)C1CCN(C(=O)CNC(C)=O)CC1)C(=O)C(=O)NCC(=O)N[C@H](C(=O)O)c1ccccc1 (some centres unmarked) [Example 58]	–	> 1000
CCCC(NC(=O)[C@H](CC(C)C)NC(=O)[C@@H](NC(=O)OCC(C)C)C1CCN(C(=O)[C@H](CC(C)C)NS(C)(=O)=O)CC1)C(=O)C(=O)NCC(=O)N[C@H](C(=O)O)c1ccccc1 (some centres unmarked) [Example 59]	–	101 to 1000
CCCC(NC(=O)C(CC1OCCCO1)NC(=O)C(NC(=O)OCC(C)C)C1CCCCC1)C(=O)C(=O)NCC(=O)NC(C(=O)OC(C)(C)C)c1ccccc1 (centres unmarked) [Example 60]	–	> 1000
CCCC(NC(=O)C(CC1CC1)NC(=O)C(NC(=O)OCC(C)C)C1CCCCC1)C(=O)C(=O)NCC(=O)NC(C(=O)OC(C)(C)C)c1ccccc1 (centres unmarked) [Example 61] (Isobutyloxycarbonyl-[Chg][Ala(cPr)][X4]G[Phg]-OtBu; configuration not given here)	–	> 1000
CCCC(NC(=O)C(CC1CC1)NC(=O)C(NC(=O)OCC(C)C)C1CCCCC1)C(=O)C(=O)NCC(=O)NC(C(=O)O)c1ccccc1 (centres unmarked) [Example 62] (Isobutyloxycarbonyl-[Chg][Ala(cPr)][X4]G[Phg]-OH; configuration not given here)	–	< 100
CCCC(NC(=O)C(CC1SCc2ccccc2CS1)NC(=O)C(NC(=O)OCC(C)C)C1CCCCC1)C(=O)C(=O)NCC(=O)NC(C(=O)O)c1ccccc1 (centres unmarked) [Example 63]	–	> 1000
CCCC(NC(=O)C(CC1OCCCO1)NC(=O)C(NC(=O)OCC(C)C)C1CCCCC1)C(=O)C(=O)NCC(=O)NC(C(=O)O)c1ccccc1 (centres unmarked) [Example 64]	–	101 to 1000
CCCC(NC(=O)C(CC1OCCO1)NC(=O)C(NC(=O)OCC(C)C)C1CCCCC1)C(=O)C(=O)NCC(=O)NC(C(=O)OC(C)(C)C)c1ccccc1 (centres unmarked) [Example 65]	–	> 1000
CCCC(NC(=O)C(CC1OCCO1)NC(=O)C(NC(=O)OCC(C)C)C1CCCCC1)C(=O)C(=O)NCC(=O)NC(C(=O)O)c1ccccc1 (centres unmarked) [Example 66]	101 to 1000	–

Compound	Ki [nM]	Ki [1] [nM]
CCCC(NC(=O)[C@H](CC(C)C)NC(=O)[C@H](C1CCCCC1)N1C(=O)c2ccccc2C1=O)C(=O)C(=O)NCC(=O)N[C@H](C(=O)OCc1ccccc1)c1ccccc1 (some centres unmarked) [Example 67]	–	> 1000
CCCC(NC(=O)[C@H](CC(C)C)NC(=O)[C@H](C1CCCCC1)N1C(=O)c2ccccc2C1=O)C(=O)C(=O)NCC(=O)N[C@H](C(=O)O)c1ccccc1 (some centres unmarked) [Example 68]	–	101 to 1000
CCCC(NC(=O)[C@H](CC(C)C)NC(=O)[C@@H](NC(=O)OCC(C)C)C1CCCCC1)C(=O)C(=O)NCC(=O)N[C@H](C(=O)OC(C)(C)C)c1ccccc1 (some centres unmarked) [Example 69] (Isobutyloxycarbonyl-[Chg]L[X4]G[Phg]-OtBu)	–	101 to 1000
CCCC(NC(=O)[C@H](CC(C)C)NC(=O)[C@@H](NC(=O)c1ccccc1N)C1CCCCC1)C(=O)C(=O)NCC(=O)N[C@H](C(=O)O)c1ccccc1 (some centres unmarked) [Example 70] (H-[2Abz][Chg]L[X4]G[Phg]-OH)	101 to 1000	–
CCCC(NC(=O)[C@H](CC(C)C)NC(=O)[C@@H](NC(=O)c1ccccc1O)C1CCCCC1)C(=O)C(=O)NCC(=O)N[C@H](C(=O)O)c1ccccc1 (some centres unmarked) [Example 71] (Salicyloyl-[Chg]L[X4]G[Phg]-OH)	101 to 1000	–
CCCC(NC(=O)[C@H](CC(C)C)NC(=O)[C@@H](NC(=O)OCC(C)C)C1CCCC1)C(=O)C(=O)NCC(=O)N[C@H](C(=O)O)c1ccccc1 (some centres unmarked) [Example 72] (Isobutyloxycarbonyl-[Gly(cPent)]L[X4]G[Phg]-OH)	–	101 to 1000
CCCC(NC(=O)[C@H](CC(C)C)NC(=O)[C@@H](NC(=O)C(CC(C)C)NS(C)(=O)=O)C1CCCC1)C(=O)C(=O)NCC(=O)N[C@H](C(=O)O)c1ccccc1 (some centres unmarked) [Example 73] (Ms-[ξL][Gly(cPent)]L[X4]G[Phg]-OH)	–	< 100
CCCC(NC(=O)[C@H](CC(C)C)NC(=O)[C@@H](NC(=O)c1ccc(S(N)(=O)=O)cc1)C1CCCC1)C(=O)C(=O)NCC(=O)N[C@H](C(=O)O)c1ccccc1 (some centres unmarked) [Example 74] ({Benzoyl(4-SO2NH2)}-[Gly(cPent)]L[X4]G[Phg]-OH)	–	101 to 1000
CCCC(NC(=O)[C@H](CC(C)C)NC(=O)[C@@H](NC(=O)c1ccccc1C(=O)O)C1CCCC1)C(=O)C(=O)NCC(=O)N[C@H](C(=O)O)c1ccccc1 (some centres unmarked) [Example 75] ({Benzoyl(2-COOH)}-[Gly(cPent)]L[X4]G[Phg]-OH)	–	101 to 1000
CCCC(NC(=O)[C@H](CC(C)C)NC(=O)[C@@H](NC(=O)c1cc(Cl)c(Cl)cc1C(=O)O)C1CCCC1)C(=O)C(=O)NCC(=O)N[C@H](C(=O)O)c1ccccc1 (some centres unmarked) [Example 76] ({Benzoyl(2-COOH-4,5-Cl2)}-[Gly(cPent)]L[X4]G[Phg]-OH)	–	101 to 1000
CCCC(NC(=O)[C@H](CC(C)C)NC(=O)[C@@H](NC(=O)OCC(C)C)C1CC[S+]([O-])CC1)C(=O)C(=O)NCC(=O)N[C@H](C(=O)O)c1ccccc1 (some centres unmarked) [Example 77]	–	> 1000
CCCC(NC(=O)[C@H](CC(C)C)NC(=O)[C@@H](NC(=O)C(CC(C)C)NS(C)(=O)=O)C1CC[S+]([O-])CC1)C(=O)C(=O)NCC(=O)N[C@H](C(=O)O)c1ccccc1 (some centres unmarked) [Example 78] (Ms-[ξL][X14]L[X4]G[Phg]-OH)	–	101 to 1000
CCCC(NC(=O)[C@H](CC(C)C)NC(=O)[C@@H](NC(=O)c1ccc(S(N)(=O)=O)cc1)C1CC[S+]([O-])CC1)C(=O)C(=O)NCC(=O)N[C@H](C(=O)O)c1ccccc1 (some centres unmarked) [Example 79]	–	> 1000
CCCC(NC(=O)[C@H](CC(C)C)NC(=O)[C@@H](NC(=O)c1ccccc1C(=O)O)C1CC[S+]([O-])CC1)C(=O)C(=O)NCC(=O)N[C@H](C(=O)O)c1ccccc1 (some centres unmarked) [Example 80]	–	101 to 1000
CCCC(NC(=O)[C@H](CC(C)C)NC(=O)[C@@H](NC(=O)c1cc(Cl)c(Cl)cc1C(=O)O)C1CC[S+]([O-])CC1)C(=O)C(=O)NCC(=O)N[C@H](C(=O)O)c1ccccc1 (some centres unmarked) [Example 81]	–	101 to 1000
CCCC(NC(=O)[C@H](CC(C)C)NC(=O)[C@@](C)(NC(=O)c1cc(Cl)c(Cl)cc1C(=O)O)C1CCCCC1)C(=O)C(=O)NCC(=O)N[C@H](C(=O)O)c1ccccc1 (some centres unmarked) [Example 82]	–	> 1000
